Measurements: paper PMC6919601, “Identification of Plasmodium dipeptidyl aminopeptidase allosteric inhibitors by high throughput screening” (PLoS ONE, 2019)
Among all 110,000 compounds or so, about 230 (0.21%) showed an effect of 50% or more. The list shows a part of the results.

Molecular target: DPAP1 (Plasmodium falciparum, UniProt Q8IIJ9)
Assay: primary screen, percent inhibition; read by cleavage of a fluorogenic dipeptide substrate; higher = more effect of the substance
Design: species or system P. falciparum D10 trophozoite lysates; single well
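Note: 30 min substrate incubation versus DMSO and 10 µM JCP410 controls.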

Sequence of DPAP1 (Q8IIJ9 whole entry, looked up): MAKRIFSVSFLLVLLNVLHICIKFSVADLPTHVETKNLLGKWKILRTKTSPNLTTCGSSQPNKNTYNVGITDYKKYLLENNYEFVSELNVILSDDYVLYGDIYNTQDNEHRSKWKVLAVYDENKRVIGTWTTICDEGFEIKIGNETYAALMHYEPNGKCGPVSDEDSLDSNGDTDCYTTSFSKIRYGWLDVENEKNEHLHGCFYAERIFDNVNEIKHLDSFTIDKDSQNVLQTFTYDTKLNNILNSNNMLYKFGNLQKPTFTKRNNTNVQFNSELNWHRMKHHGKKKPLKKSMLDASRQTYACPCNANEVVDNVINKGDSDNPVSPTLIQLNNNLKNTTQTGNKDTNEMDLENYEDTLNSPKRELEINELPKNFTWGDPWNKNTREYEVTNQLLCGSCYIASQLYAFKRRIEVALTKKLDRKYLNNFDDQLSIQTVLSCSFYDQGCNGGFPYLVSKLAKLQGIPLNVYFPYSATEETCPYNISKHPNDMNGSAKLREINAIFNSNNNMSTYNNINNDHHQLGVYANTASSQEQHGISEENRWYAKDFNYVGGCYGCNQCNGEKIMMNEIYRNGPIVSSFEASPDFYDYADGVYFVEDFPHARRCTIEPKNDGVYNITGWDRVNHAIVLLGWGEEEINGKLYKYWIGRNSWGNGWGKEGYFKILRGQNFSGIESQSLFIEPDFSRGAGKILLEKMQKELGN

Row | SMILES | % Inhibition @ 10 uM [%]
1 | Cc1ccc(S(=O)(=O)Nc2cnc3ccccc3c2)cc1 | 1.42
2 | Cc1nn(-c2ccccc2)c2c1N(CC(=O)N1CCC(Cc3ccccc3)CC1)C(=O)CS2 | -0.656
3 | CCOc1ccc(NC2=C(Cl)C(=O)N(c3ccccc3)C2=O)cc1 | 3.19
4 | Cc1cc(CSC(=N)N)cs1 | 2.57
5 | COc1ccc(S(=O)(=O)Nc2cccc3cccnc23)cc1 | -4.52
6 | O=C(O)CC1(CC(=O)Nc2ccc(C(F)(F)F)cc2)CCCC1 | -4.14
7 | CSc1ccc(S(=O)(=O)N(CC(=O)N2CCCCCC2)c2ccc(C)cc2)cc1 | -1.64
8 | CCc1ccc(CNC(=O)Cn2nc(-c3ccccc3)ccc2=O)cc1 | 0.514
9 | COc1ccc(OC)c(-n2cnc3cc(C(=O)NCCC4=CCCCC4)ccc32)c1 | 1.2
10 | O=C(Cn1nc(C(F)(F)F)cc1C1CC1)Nc1ccc(Cl)cc1F | -5.6
11 | CCOc1ccccc1C1NC(=S)NC(c2ccccc2OCC)C12C(=O)NC(=O)NC2=O (stereo not shown) | -2.01
12 | CN1C(=O)[C@@H]2[C@H](C1=O)[C@H](C(=O)c1ccccc1)N1c3ccccc3C=C[C@@H]21 | 2.95
13 | CCN(CC)C(=O)/C(=C/c1ccc(OC)cc1)NC(=O)c1ccc(OC)cc1 | -2.87
14 | COC(=O)C1=CN(CCCN2CCCC2=O)C=C(C(=O)OC)C1c1ccccc1C(F)(F)F | -0.386
15 | COCCNC(=O)C1CCN(c2nnc(C)c3c(C)n(-c4ccc(C)cc4)nc23)CC1 | -2.14
16 | O=S(=O)(c1ccc(Br)cc1Br)N1CCOCC1 | -7.88
17 | Oc1ccc(OC(c2ccccc2)C(O)c2ccccc2)cc1 (stereo not shown) | 1.92
18 | Cc1cc(C(=O)O)c(CCCN)s1 | 1.42
19 | CC1=C(C(=O)OCCc2ccccc2)C(c2cccc(Cl)c2Cl)NC(=O)N1 (stereo not shown) | -6.08
20 | CC(CCN1CCN(C)CC1)c1ccccc1 (stereo not shown) | -3.57
21 | COc1cc(C)c(CN2CCN(Cc3ccccc3)CC2)cc1C | 3.16
22 | O=S(=O)(c1cccc2cccnc12)N1CCN(Cc2ccc3c(c2)OCO3)CC1 | 2.01
23 | Cc1ccc(/C=C2/SC(=O)N(CN3CCOCC3)C2=O)cc1 | -3.37
24 | CC(C)=CCCC(C)CN1CCCC(C(N)=O)C1 (stereo not shown) | 4.9
25 | O=S(=O)(c1ccc(-c2csc(Nc3cc(Cl)cc(Cl)c3)n2)cc1)N1CCCC1 | -0.233

Row | SMILES | % Inhibition @ 10 uM [%]
26 | C=CCN1C(=O)C2(NC(CC(C)C)C3C(=O)N(c4ccccc4)C(=O)C32)c2ccccc21 (stereo not shown) | 2.27
27 | Cc1ccccc1NC(=O)/C=C/c1ccccc1 | -1.69
28 | Cc1ccccc1-c1nc(CN2CCC(C(=O)NCCCN3CC(C)CC(C)C3)CC2)c(C)o1 (stereo not shown) | -4.71
29 | CN(Cc1ccccc1)C(=O)C1CC(c2ccc(F)cc2)=NO1 (stereo not shown) | -2.16
30 | CCOC(=O)c1c(O)cc2ccccc2c1O | -1.97
31 | O=C(NCc1ccc2c(c1)OCO2)c1cc(=O)c2cc(Cl)ccc2o1 | -3.24
32 | Cc1scc(CN2CCCCCC2)c1C | 1.77
33 | Cc1nc2ccccc2n1CCc1nc2c3ccccc3nc(NCc3cccnc3)n2n1 | 9.96
34 | CCCCNC(=O)c1cc(-c2ccc(F)cc2)on1 | 4.5
35 | CCC1CCCCN1C(=O)c1cc2cc3cc(OC)ccc3nc2s1 (stereo not shown) | 0.128
36 | Cc1ccc(-c2nc(CS(=O)(=O)CC(=O)NC3CC3)c(C)o2)cc1 | -3.7
37 | COc1ccc(C2OC(=O)C(C)(C)C(=O)C2(C)C)cc1 (stereo not shown) | -1.24
38 | CC(C)(C)c1[nH]nc2c1C(c1c[nH]nc1-c1ccc(F)cc1)C(C#N)=C(N)O2 (stereo not shown) | 4.32
39 | O=C(NCCc1ccccc1)C(=O)Nc1ccc(F)cc1 | 1.13
40 | CCOc1ccccc1-c1nc(-c2ccc(C(F)(F)F)cc2)no1 | 1
41 | SC(COCc1ccccc1)CN1CCN(Cc2ccccc2)CC1 (stereo not shown) | -6.02
42 | NS(=O)(=O)c1ccc(CCNc2ccc3nnc(-c4ccccc4)n3n2)cc1 | 6.41
43 | CCOc1ccc(NC(=O)c2ccccc2C)cc1 | 1.83
44 | Cc1nnc(NC(=O)CSc2nnc(CNC(=O)c3ccco3)n2-c2cccc(C)c2C)s1 | 3.75
45 | CC(CCc1ccccc1)NC(=O)Cn1c2c(c(-c3ccccc3Cl)cc1=O)CCC2 (stereo not shown) | -0.971
46 | C=CCn1c(C(C)NC(=O)c2cc(OC)c(OC)c(OC)c2)nc2ccccc21 (stereo not shown) | 0.813
47 | CC(C)C(=O)Nc1c(C(=O)N2CCN(c3ncccn3)CC2)oc2ccccc12 | -1.61
48 | Cc1cc(/C=C2/NC(=O)N(c3cccc(Cl)c3)C2=O)c(C)n1C(C)C | -3.39
49 | Cc1oc(-c2ccc(C(=O)NC(C)c3ccccc3)cc2)nc1CS(=O)c1ccccc1 (stereo not shown) | 0.453
50 | CC1CCN(Cc2cccn2-c2nnc(N3CCN(Cc4ccccc4)CC3)s2)CC1 | -1.79

Row | SMILES | % Inhibition @ 10 uM [%]
51 | CC(=O)Nc1ccc(C(=O)Nc2ccc(Cl)c(Cl)c2)cc1 | -0.197
52 | CCCc1cc(NCCCN2CCOCC2)n2c(nc3ccccc32)c1C#N | 2.56
53 | CN1CCN(C(=O)C2CC(c3c(F)cccc3Cl)=NO2)CC1 (stereo not shown) | 1.91
54 | NC(=O)CN1C(=O)c2cccc3cccc1c23 | -4.48
55 | CCC(NC(=O)c1ccccc1NC(=O)c1ccc(OC)cc1)C(=O)Nc1cccc2ccccc12 (stereo not shown) | 5.6
56 | COc1ccccc1C(=O)N1CCN(c2cccc(Cl)c2)CC1 | 3.48
57 | Cc1noc(C)c1S(=O)(=O)N1CCC(C(=O)N2CC(=O)N(CCc3ccccc3)C(=O)C2)CC1 | 0.402
58 | O=C(O)C1CC=CCC1C(=O)OCC(Cl)=C(Cl)Cl (stereo not shown) | -0.216
59 | O=C1c2ccccc2C(=O)c2cc(S(=O)(=O)N3CCCCCC3)ccc21 | -0.261
60 | O=C(CSc1ccccc1)NCCSCc1ccc(Cl)cc1 | 4.01
61 | CSc1nc(-c2ccco2)nn1C(=O)c1ccccc1 | 0.778
62 | CC(=O)/C(C#N)=C\Nc1ccc2c(c1)ncn2-c1ccc(Cl)cc1 | 3.05
63 | O=P(O)(Cc1ccccc1)Cc1ccccc1 | -3.48
64 | COc1cccc(CNCc2ccc(C(F)(F)F)cc2)c1OC | -7.08
65 | COC(=O)c1noc(-c2ccc(OC)cc2)n1 | 5.12
66 | CC1Cc2nc(SCC(=O)Nc3nc4ccccc4s3)n(CCc3ccccc3)c(=O)c2S1 (stereo not shown) | -1.62
67 | NC(=O)c1c(NC(=O)COc2ccc(Br)cc2)sc2c1CCCC2 | 3.8
68 | Cc1[nH]c2ccccc2c1C(O)c1ccccn1 (stereo not shown) | -1.75
69 | COC(=O)c1nnn(-c2cc(OC)cc(OC)c2)c1C(=O)OC | -0.0521
70 | CCN(CC)S(=O)(=O)c1ccc(NC(=O)Cc2ccccc2)cc1 | -4.14
71 | COc1cc2c(cc1/C=C1/S/C(=N\c3ccc(N4CCOCC4)cc3)N(C)C1=O)OCO2 | -0.318
72 | OCCN(CCO)Cc1c(F)cccc1F | 0.273
73 | COc1cccc(OC)c1C(=O)Nc1cc(Cl)ccc1Cl | -1.98
74 | CCCCn1c(SCc2ccc(C)cc2)nc2c1c(=O)[nH]c(=O)n2C | 5.66
75 | Cc1nn(C(C)C(=O)NC2CCCc3ccccc32)c(=O)c2cc3sccc3n12 (stereo not shown) | 1.8

Row | SMILES | % Inhibition @ 10 uM [%]
76 | CCC(=O)c1ccc(N2CCN(C)CC2)c(F)c1 | 0.13
77 | Cc1nn(Cc2ccc(C(=O)NCc3cccnc3)o2)c(C)c1Cl | -1.37
78 | COc1ccc(OCC(=O)Nc2ccc(S(=O)(=O)Nc3ccc(Cl)cc3)cc2)cc1 | 5.39
79 | COc1ccc(-c2coc3c(C)c4oc(=O)cc(C)c4cc23)cc1 | 3.81
80 | Cc1nnc(N2CCCC(C(=O)NCCCN3CCOCC3)C2)c2nn(-c3ccccc3)c(C)c12 (stereo not shown) | 1.4
81 | O=C(CCCOc1ccc(Cl)cc1Cl)Nc1ccncc1 | -4.68
82 | N=Cc1c(C(F)(F)F)nn(-c2nc3ccccc3s2)c1O | 2.38
83 | CC1=C(C(=O)Nc2ccc(Br)cc2)C(c2cccs2)NC(=O)N1 (stereo not shown) | -3.69
84 | N#CCNC(=O)[C@H](Cc1ccccc1Cl)NC(=O)OCc1ccccc1 | -0.207
85 | O=C(CSc1c2c(nc3ccc(Cl)cc13)CCCC2)NCCCN1CCOCC1 | -8.9
86 | CCCNC(=O)N1CCCC(C(N)=O)C1 (stereo not shown) | -0.403
87 | Cc1cc(C)n(-c2ncnc3sc(C)c(C)c23)n1 | -2.87
88 | CC(C)(C)C1(C)OC(=O)C(=Cc2ccccc2Cl)C(=O)O1 (stereo not shown) | -2.37
89 | O=C(O)c1c(CNCc2ccccn2)c2ccccc2n1Cc1ccccc1 | 6.41
90 | O=C(Nc1nccs1)c1ccc(-c2ccc(Cl)cc2Cl)o1 | 1.05
91 | CCOc1ccc(C2C(C(=O)c3ccc(OC(C)C)cc3)=C(O)C(=O)N2c2ccccn2)cc1 (stereo not shown) | -7.96
92 | O=c1oc2cc(OCc3ccc(F)cc3)c(Cl)cc2c2c1CCC2 | -5.62
93 | CC(=O)N(C)c1ccc(NS(=O)(=O)c2cc(Cl)ccc2Cl)cc1 | -6.16
94 | COc1cccc(C2=Nc3c(c(=O)[nH]c(=O)n3-c3ccccc3)C(C(F)(F)F)(C(F)(F)F)N2)c1 | 0.26
95 | COc1ccc(/C=C2/NC(=O)N(CC(=O)Nc3ccc(C)cc3)C2=O)cc1OC | -5.35
96 | COc1ccc(-c2cc(C(F)F)n3ncc(C(=O)Nc4ccc(OC)cc4C)c3n2)cc1 | -5.71
97 | CC(=O)c1c(O)cc(C)o/c1=N\c1ccc(Oc2ccccc2)cc1 | 1.01
98 | CCN(CC)c1ccc(NC(=O)c2cccnc2Cl)cc1 | 2.06
99 | CC(C(=O)NCc1ccco1)n1sc2ccccc2c1=O (stereo not shown) | -1.49
100 | COc1ccc(CCNC(=O)CSc2nnc(-c3sc4ccccc4c3Cl)o2)cc1OC | 1.31
